From patent publication US20040138247A1 (priority 1999, published 2004)
Read-outs that look alike come from different tables or passages of the source.

Key:
[1] = tablet formulation 7.5 mg
[2] = not given; remark: listed apart in the source
clinical = settings: human, plasma, po, 7.5 mg, oral single dose 7.5 mg tablet, Mean (% CV); for AUC: AUC(l), N=17; for Cmax: N=18
[3] = tested on: seasonal allergic rhinitis; assay: Double-blinded, randomized clinical trials in seasonal allergic rhinitis patients
[4] = co-administration of meals; PDR / CPS; cited from earlier work

Compound	Effect of food intake on oral bioavailability [1]	Subjects reporting treatment-emergent adverse events (single 7.5 mg tablet fed and fasted, 9 of 18 subjects)	Safety and tolerability (single oral doses 7.5 mg under fed and fasted conditions)	Blood pressure, pulse rate, electrocardiograms and oral body temperature evaluations ([2]; 5 mg tablet or syrup, healthy male and female subjects)	Safety and tolerability ([2]; 5 mg, tablet or syrup formulation)	Treatment-related AE: gastrointestinal disorders ([2]; 2/30)	AUC (clinical; FASTED)	AUC (clinical; FED)	Cmax (clinical; FASTED)	Cmax (clinical; FED)	Reduction of nasal symptoms versus placebo ([3]; 5 mg)	Total symptom scores ([3]; 5 mg once daily, seasonal allergic rhinitis patients)	AM NOW total symptom score ([3]; 5 mg to 20 mg dosage range, 24 hours after dose)	Food effect (effects fed versus fasted) [4]
Clc1ccc2c(c1)CCc1cccnc1C2=C1CCNCC1 [desloratadine]	no effect	50%	safe and well tolerated	no consistent changes of clinical relevance	safe and well tolerated	7%	63.5 ng·h/mL	62.5 ng·h/mL	3.3 ng/mL	3.53 ng/mL	significantly (p<0.01) more effective than placebo	significantly reduced	Statistically significant (p<0.05) reductions were maintained for the full 24 hour dosing interval	–
CCOC(=O)N1CCC(=C2c3ccc(Cl)cc3CCc3cccnc32)CC1 [loratadine]	–	–	–	–	–	–	–	–	–	–	–	–	–	higher than when loratadine is administered to a patient under fasted condition
